# Assay results: US20190330336A1 (SUTRO BIOPHARMA, published 2019)
# T1: human LAG3 expressed on the cell surface of CHO or HEK293T cells (human, UniProt P18627 23-525)
# T1 construct: also called CHO-LAG3; 293T-LAG3
# T1 sequence: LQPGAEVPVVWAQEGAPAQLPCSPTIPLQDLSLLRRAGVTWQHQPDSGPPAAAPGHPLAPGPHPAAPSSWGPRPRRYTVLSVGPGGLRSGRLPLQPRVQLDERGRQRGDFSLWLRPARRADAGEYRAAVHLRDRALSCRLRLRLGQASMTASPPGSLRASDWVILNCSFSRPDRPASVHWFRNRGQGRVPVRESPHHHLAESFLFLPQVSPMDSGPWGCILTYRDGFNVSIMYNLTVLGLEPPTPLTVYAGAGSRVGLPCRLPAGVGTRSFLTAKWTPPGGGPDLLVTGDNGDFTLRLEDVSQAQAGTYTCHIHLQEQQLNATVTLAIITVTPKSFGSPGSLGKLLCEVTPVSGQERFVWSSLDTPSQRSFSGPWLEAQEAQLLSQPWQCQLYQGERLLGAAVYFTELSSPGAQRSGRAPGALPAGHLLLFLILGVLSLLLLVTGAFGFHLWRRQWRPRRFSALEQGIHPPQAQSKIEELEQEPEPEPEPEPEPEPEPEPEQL
# T2: HIS-tagged (ACRO) or biotinylated recombinant human LAG3 protein (human, UniProt P18627 23-450, HIS tag or biotin, position not stated)
# T2 construct: Soluble bought protein; also called rhLAG3
# T2 sequence: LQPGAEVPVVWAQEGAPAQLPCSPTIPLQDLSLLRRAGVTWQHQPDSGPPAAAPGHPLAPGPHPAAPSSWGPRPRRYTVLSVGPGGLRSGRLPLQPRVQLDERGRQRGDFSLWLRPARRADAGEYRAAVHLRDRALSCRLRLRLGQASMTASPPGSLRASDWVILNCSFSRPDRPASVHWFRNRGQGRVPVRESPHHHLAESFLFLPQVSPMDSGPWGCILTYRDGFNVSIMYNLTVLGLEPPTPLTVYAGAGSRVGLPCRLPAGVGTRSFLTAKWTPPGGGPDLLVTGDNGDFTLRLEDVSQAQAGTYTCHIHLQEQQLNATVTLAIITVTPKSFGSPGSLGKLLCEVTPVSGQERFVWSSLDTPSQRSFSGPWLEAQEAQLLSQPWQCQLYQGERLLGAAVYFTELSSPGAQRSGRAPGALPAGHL
# T3: human LAG3-Fc, R&D Systems #2319-L3 (human, UniProt P18627 23-450)
# T3 construct: Bought protein; also called Human LAG3 (Biacore); not shown: human Fc of the bought fusion protein
# T3 sequence: T2 sequence
# B1: SRP1627-B01 (scFv)
# scFv-Fc: QVQLVQSGAEVKKPGSSVKVSCKASGFNITDLYMHWVRQAPGQGLEWIARIDPWNGDTEYAPKFQGRATITADESTSTAYMELSSLRSEDTAVYYCIASEMVDYWGQGTLVTVSSGGGGSGGGGSGGGGSDVVMTQSPLSLPVTLGQPASISCKSSQSLLDSDGKTYLNWFQQRPGQSPRRLIYLVSKLDSGVPDRFSGSGSGTDFTLKISRVEAEDVGVYYCSTYSHFPQTFGQGTKVEIKAAGSDQ[human IgG1 Fc with changes cut from this listing]
# B2: SRP1558-F01 (scFv)
# chain: EVQLLESGGGLVQPGGSLRLSCAASGFTFPDSSMSWVRQAPGKGLEWVGVITDNSGNTDYADSVKGRFTISRDNSKNTLYLQMNSLRAEDTAVYYCAKVFEGGVRPYSDYWGQGTLVTVSSGGGGSGGGGSGGGGSEIVLTQSPGTLSLSPGERATLSCRASQSVSSGNPAWYQQKPGQAPRLLIYGASSRATGIPDRFSGSGSGTDFTLTISRLEPEDFAVYYCQQYTAGPPTFGQGTKVEIKAAGSDQ[human IgG1 Fc with changes cut from this listing]
# B3: SRP1448-D09 (scFv)
# chain: EVQLLESGGGLVQPGGSLRLSCAASGFTFTDSSMSWVRQAPGKGLEWVGVITGNSGTTDYADSVKGRFTISRDNSKNTLYLQMNSLRAEDTAVYYCAKVYEGGVRPYSDYWGQGTLVTVSSGGGGSGGGGSGGGGSEIVLTQSPGTLSLSPGERATLSCRASQSVSSSYLAWYQQKPGQAPRLLIYGASSRATGIPDRFSGSGSGTDFTLTISRLEPEDFAVYYCQQDTAGPPTFGQGTKVEIKAAGSDQ[human IgG1 Fc with changes cut from this listing]
# B4: SRP1627-A02 (scFv)
# chain: QVQLVQSGAEVKKPGSSVKVSCKASGFNINDYFMHWVRQAPGQGLEWIARIDPWNGDTEYAPKFQGRVTITADESTSTAYMELSSLRSEDTAVYYCGMSDALDYWGQGTLVTVSSGGGGSGGGGSGGGGSDVVMTQSPLSLPVTLGQPASISCKSSQSLLDSDGKTYLNWFQQRPGQSPRRLIYLVSKLDSGVPDRFSGSGSGTDFTLKISRVEAEDVGVYYCSHGNPVPQTFGQGTKVEIKAAGSDQ[human IgG1 Fc with changes cut from this listing]
# B5: SRP1627-A11 (scFv)
# scFv-Fc: QVQLVQSGAEVKKPGSSVKVSCKASGFNINDYFMHWVRQAPGQGLEWIARIDPWNGDTEYAPKFQGRVTITADESTSTAYMELSSLRSEDTAVYYCGMSDALDYWGQGTLVTVSSGGGGSGGGGSGGGGSDVVMTQSPLSLPVTLGQPASISCKSSQSLLDSDGKTYLNWFQQRPGQSPRRLIYLVSKLDSGVPDRFSGSGSGTDFTLKISRVEAEDVGVYYCWHGINFPQTFGQGTKVEIKAAGSDQ[human IgG1 Fc with changes cut from this listing]
# B6: h5G11-2 (scFv)
# scFv-Fc: QVQLVQSGAEVKKPGSSVKVSCKASGFNIKDYYMHWVRQAPGQGLEWIAWIDPENGDTEYAPKFQGRVTITADESTSTAYMELSSLRSEDTAVYYCNAPDALDYWGQGTLVTVSSGGGGSGGGGSGGGGSDVVMTQSPLSLPVTLGQPASISCKSSQSLLDSDGKTYLNWFQQRPGQSPRRLIYLVSKLDSGVPDRFSGSGSGTDFTLKISRVEAEDVGVYYCWQGSHFPQTFGQGTKVEIKAAGSDQ[human IgG1 Fc with changes cut from this listing]
# notes: also called humanized antibody h5G11-2
# B7: SRP1558-A06 (scFv)
# chain: EVQLLESGGGLVQPGGSLRLSCAASGFTFSESTMSWVRQAPGKGLEWVGFITSDSGTTDYADSVKGRFTISRDNSKNTLYLQMNSLRAEDTAVYYCAKVFEGGVRPFSDYWGQGTLVTVSSGGGGSGGGGSGGGGSEIVLTQSPGTLSLSPGERATLSCRASQSVSSNPLAWYQQKPGQAPRLLIYGASSRATGIPDRFSGSGSGTDFTLTISRLEPEDFAVYYCQQYMAGPPTFGQGTKVEIKAAGSDQ[human IgG1 Fc with changes cut from this listing]
# Target: T1, human LAG3 expressed on the cell …
# Assay: flow cytometry on 293T cells expressing human LAG3
# Description: Antibody variants were tested in a fluorescence-activated cell sorting (FACS) cell-binding assay. Chinese Hamster Ovary (CHO) cells or HEK293T cells stably expressing the human target molecule LAG3 on the cell surface (CHO-LAG3, 293T-LAG3) were used to screen for cell binders by flow cytometry. Parental CHO or 293T cells were used as a negative control to determine background-binding levels. Cells were cultured in RPMI with 10% FCS Penicillin/Streptomycin (or Pen/Strep) and glutamine (or Gln) and split every 3-4 days at 10⁵ cells/ml.
# A mix of parental CHO cells and CHO-LAG3 cells (or 293T and 293T-LAG3 cells) was prepared as follows: Parental CHO cells were washed 2× in PBS then incubated in PBS containing 1 nM CellTrace™ Oregon Green488® (Life Technologies) at 37° C. for 30 minutes. […] Parental CHO cells and CHO-LAG3 cells were then mixed to obtain a 1:1 cell suspension and seeded at 100 μl per well on 96 well polypropylene plates. Plates were spun at 1500 rpm for 5 minutes and cell pellets were suspended in 50 μl FACS buffer containing 6-12 point dilutions of anti-LAG3 variants starting from concentrations of ˜100-200 nM antibody, dispensed using BioMekFX (Beckman Coulter). Cells were then incubated on ice for 1 hr, washed with FACS buffer and incubated for 1 hr on ice with 50 μl FACS buffer containing 2.5 μg/ml R-Phycoerythrin-conjugated Goat Anti-Human IgG (Jackson ImmunoResearch) or AF647-conjugated Goat Anti-mouse IgG (Life Technologies) dispensed using BioMekFX (Beckman Coulter). Cells were then washed 2× with FACS buffer and fixed for 10 minutes in 200 μl PBS with 2% PFA prior to fluorescence detection. Samples were acquired using a Beckton Dickinson LSRII FACS. Mean Fluorescence Intensity of LAG3 antibody binding was analyzed using Tree Star, Inc. FlowJo® software.
row,Kd [nM],Binder
1,0.19,B1
2,0.5,B2
3,0.4,B3
4,0.97,B4
5,0.74,B5
6,78,B6

# Target: T2, HIS-tagged (ACRO) or biotinylated …
# Assay: FACS competition: antibody inhibits rhLAG3 binding to MHCII on DAUDI cells
# Description: DAUDI cells express high levels of Major Histocompatibility Class II (MHCII) molecules, a natural ligand for LAG3, on the cell surface. DAUDI cells were used to screen for antibodies that inhibit binding of HIS-tagged (ACRO) or biotinylated recombinant human LAG3 protein (rhLAG3) to MHCII expressed on the cell surface.
# DAUDI cells were cultured in RPMI w/10% FCS Pen/Strep and Gln and split every 3-4 days at 10^5 cells/ml. Cells were washed 2× with FACS buffer (PBS w/2% FCS), […] at a final concentration of 1×10⁶ cells/ml and seeded at 100 μl per well on 96 well polypropylene plates. Plates were spun at 1500 rpm for 5 minutes and cell pellets were suspended in 50 μl FACS buffer containing 8 point 1:3 dilutions (2× concentrated) of anti-LAG3 antibody variants, starting from high concentration of ˜600 nM. 50 μl FACS buffer containing 10-20 μg/ml of the HIS-tagged rhLAG3 protein or 40 μg/ml of the biotinylated rhLAG3 protein were then added to the cells. Cell were then incubated in ice for 1 hr, washed with FACS buffer and incubated for 1 hr in ice with 50 μl FACS buffer containing 2 μg/ml R-Phycoerythrin-conjugated Streptavidin (eBiosciences) or 1 μg/ml R-Phycoerythrin-conjugated anti-HIS IgG (Abcam). Cell were washed 2× with FACS buffer and fixed for 10 minutes in 200 μl PBS w/2% PFA prior to acquisition.
row,IC50 [nM],Binder
1,0.4,B1
2,1.6,B5

# Target: T3, human LAG3-Fc, R&D Systems #2319-L3
# Assay: SPR (Biacore), antibody captured on anti-Flag chip, human LAG3-Fc analyte, 25 C, 1:1 fit
# Description: Anti-Flag M2 IgG (Sigma-Aldrich # F9291) was immobilized onto a CMS chip (GE Life Sciences) using amine coupling chemistry (from Amine Coupling Kit, GE Life Sciences). The immobilization steps were carried out at a flow rate of 25 μL/min in 1×HBS-EP+ buffer (GE Life Sciences; 10× Stock diluted before use). The sensor surfaces were activated for 7 min with a mixture of NHS (0.05 M) and EDC (0.2 M). The Anti-Flag M2 IgG was injected over all 4 flow cells at a concentration of 25 μg/mL in 10 mM sodium acetate, pH 4.5, for 7 min. Ethanolamine (1 M, pH 8.5) was injected for 7 min to block any remaining activated groups. An average of 12,000 response units (RU) of capture antibody was immobilized on each flow cell.
# Off-rate and Kinetic binding experiments were performed at 25° C. using 1×HBS-EP+ buffer. Test and control antibodies were injected over the Anti-Flag surface at concentrations of 5-10 μg/mL for 12 seconds at a flow rate of 10 μL/min on flow cells 2, 3 and 4, followed by a buffer wash for 30 seconds at the same flow rate. Kinetic characterization of antibody samples was carried out with a single concentration of antigen (for off-rate ranking) or a dilution series of antigen (for kinetic characterization) and 1 injection of 0 nM antigen. After capturing ligand (antibody) on the anti-Flag surface, the analyte (human LAG3-Fc, R&D Systems #2319-L3; or cynomolgus LAG3-Fc, accession #NC_022282.1) was bound at 50, 25, 12.5, 6.25, and 0 nM for 180 seconds, followed by a 600 second dissociation phase at a flow rate of 50 μl/min. Between each ligand capture and analyte binding cycle, regeneration was carried out using 2 injections of 10 mM glycine pH 2.0 for 30 seconds at 30 μL/min, followed by a 30 second buffer wash step.
# The data were fit with the Biacore T200 Evaluation software, using a 1:1 Langmuir binding model. KD (affinity, nM) was determined as a ratio of the kinetic rate constants calculated from the fits of the association and dissociation phases.
Kd [nM],koff [s⁻¹],kon [M⁻¹ s⁻¹],Binder
14.7,0.0152,1.04e+06,B1
24,0.011,435000,B2
13.5,0.00422,312000,B5
863,0.0023,2670,B6
13,0.0099,790000,B7
